# Values joined by “and” are separate entries in the source; they are usually repeats but may differ in a detail not shown here. Equal values may be shown once. This list was built around the results that the source calls inconclusive (neither active nor inactive); the mix of calls is not that of the screen. For some assays here: Potencies of inconclusive entries are left out as doubtful fits. For some assays here: “Side channel” marks fits to a control or component signal instead of the main read-out. Active and inactive are the calls of the source. Unless noted, calls follow the shape of the dose curve; as a rule, active = well fitted curve in the direction sought with a large enough effect; inconclusive = small, poorly fitted or top-dose-only effect, or another doubt; inactive = no such curve, though single readings can be large; an effect the other way counts as inactive or inconclusive.
# Legend:
# [1] = molecular target: Rap guanine nucleotide exchange factor 3 (Homo sapiens) (UniProt O95398); assay: Confirmatory qHTS for antagonist of cAMP-regulated guanine nucleotide exchange factor 3 (EPAC1) (AID 1645880); also: potency is read from the fitted curve at half-maximal effect; nearly all actives have a fitted effect of over 55% in size
# UniProt O95398, sequence (O95398 whole entry, looked up): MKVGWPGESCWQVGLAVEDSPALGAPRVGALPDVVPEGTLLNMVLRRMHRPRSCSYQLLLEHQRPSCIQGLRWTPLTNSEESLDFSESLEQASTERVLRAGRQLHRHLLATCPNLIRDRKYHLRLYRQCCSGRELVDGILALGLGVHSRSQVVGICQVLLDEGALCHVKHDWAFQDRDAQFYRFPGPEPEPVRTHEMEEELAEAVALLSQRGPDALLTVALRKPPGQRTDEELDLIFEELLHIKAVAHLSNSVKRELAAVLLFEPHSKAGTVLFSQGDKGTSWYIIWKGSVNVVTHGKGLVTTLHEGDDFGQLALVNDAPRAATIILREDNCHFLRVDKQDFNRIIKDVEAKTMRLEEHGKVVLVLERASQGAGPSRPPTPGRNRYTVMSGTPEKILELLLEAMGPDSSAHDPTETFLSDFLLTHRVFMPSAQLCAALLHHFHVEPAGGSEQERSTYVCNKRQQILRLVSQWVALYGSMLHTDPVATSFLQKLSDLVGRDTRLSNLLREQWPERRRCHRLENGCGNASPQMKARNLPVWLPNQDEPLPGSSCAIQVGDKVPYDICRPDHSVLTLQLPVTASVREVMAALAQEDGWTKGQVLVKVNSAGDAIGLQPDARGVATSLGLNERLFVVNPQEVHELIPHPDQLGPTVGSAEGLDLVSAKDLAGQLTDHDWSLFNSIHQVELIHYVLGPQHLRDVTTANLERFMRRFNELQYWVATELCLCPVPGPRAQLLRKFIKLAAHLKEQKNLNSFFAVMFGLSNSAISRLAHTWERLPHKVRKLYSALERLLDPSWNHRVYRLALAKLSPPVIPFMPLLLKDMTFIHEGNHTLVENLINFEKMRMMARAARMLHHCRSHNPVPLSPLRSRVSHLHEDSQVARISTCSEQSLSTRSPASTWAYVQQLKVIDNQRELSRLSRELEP
# Procedure, shortened: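 Nucleotide exchange uses 100 nM EPAC1, 250 nM RAP1B-BODIPY-GDP and 50 uM GDP, with compounds in a concentration-titration series. After 5 min at room temperature, fluorescence (480 nm ex/540 nm em) is read every 5 min for 30 min. Data are normalized to control ATA and DMSO.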
# [2] = tested on: Zika virus NS2B-NS3 protease (linked construct); assay: Confirmatory screen NINDS AMC qHTS for Zika virus inhibitors (AID 1347152); also: potency is read from the fitted curve at half-maximal effect; nearly all actives have a fitted effect of over 70% in size
# Procedure, shortened: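 Purified NS2B-NS3 protease with NS2B hydrophilic domain linked to NS3 protease domain by flexible linker, 1 nM final in 10 mM Tris-HCl pH 8.0, 0.01% Tween 20. Compounds preincubated 15 min, room temperature; Bz-Nle-KRR-AMC 10 microM (Km 18.3 µM); 15-min fluorescence change, 4-parameter Hill fit.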
# [3] = tested on: Zika virus NS2B-NS3 protease (unlinked complex); assay: Confirmatory screen GU AMC qHTS for Zika virus inhibitors (AID 1347153); also: potency is read from the fitted curve at half-maximal effect; nearly all actives have a fitted effect of over 70% in size
# Procedure, shortened: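 Unlinked enzyme 25 nM, Tris pH 8.0/0.01% Tween 20; cpd 15 min RT, dark; + AMC substrate 10 µM (Km 18.3 µM); 340/450 nm read at t0 and 15 min; % inhibition → 4-param fit.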
# [4] = tested on: Zika virus NS2B-NS3 protease (linked construct); assay: 384 well plate NINDS Rhodamine confirmatory qHTS for Zika virus inhibitors (AID 1347164);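 also: fluorescence from protease cleavage of Ac-LKRR-rhodamine 110 substrate; potency is read from the fitted curve at half-maximal effect; nearly all actives have a fitted effect of over 65% in size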
# Procedure, shortened: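 Linked protease at a final 5 nM, 30 nM or 60 nM was preincubated ~15 min with compounds, then given 10 microM Ac-LKRR-Rhodamine 110. Fluorescence (ex 485/em 538 nm) after 25 min in the dark at room temperature.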
# [5] = molecular target: Luciferin 4-monooxygenase (Photinus pyralis) (UniProt P08659); assay: Biochemical firefly luciferase enzyme assay for NPC (AID 624030); also: nearly all actives have a fitted effect of over 70% in size; also: potency is read from the fitted curve at half-maximal effect;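 as to activity change, negative = inhibition: purified P. pyralis luciferase at 10 nM with luciferin and ATP substrate; 0% = DMSO and -100% = full luciferase inhibition by PTC124 control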
# UniProt P08659, sequence (P08659 whole entry, looked up): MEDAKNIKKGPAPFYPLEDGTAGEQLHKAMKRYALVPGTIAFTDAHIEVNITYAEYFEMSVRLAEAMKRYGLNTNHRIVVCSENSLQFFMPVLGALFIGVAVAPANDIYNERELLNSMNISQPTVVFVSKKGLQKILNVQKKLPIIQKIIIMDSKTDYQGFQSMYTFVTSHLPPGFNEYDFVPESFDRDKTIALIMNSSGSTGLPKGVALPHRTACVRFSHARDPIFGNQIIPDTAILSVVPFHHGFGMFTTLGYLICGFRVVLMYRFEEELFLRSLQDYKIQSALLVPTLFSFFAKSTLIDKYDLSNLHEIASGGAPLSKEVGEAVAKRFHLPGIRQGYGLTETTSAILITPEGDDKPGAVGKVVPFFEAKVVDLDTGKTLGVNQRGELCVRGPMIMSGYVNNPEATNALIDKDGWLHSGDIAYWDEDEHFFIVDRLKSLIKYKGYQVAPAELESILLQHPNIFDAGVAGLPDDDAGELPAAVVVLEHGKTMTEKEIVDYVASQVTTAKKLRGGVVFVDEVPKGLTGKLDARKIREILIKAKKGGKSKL
# Procedure, shortened: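 Counter-screen for direct inhibition of the luciferase enzyme by approved-drug library compounds, run at 10 nM enzyme in 50 mM Tris acetate (final). Luminescence was read within 5 min of enzyme-buffer addition and normalized to PTC124 versus DMSO (0%).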
# Furin (Homo sapiens) = Furin (Homo sapiens) (UniProt P09958); assay: Furin counterscreen qHTS for Zika virus inhibitors (AID 1347149); also: potency is read from the fitted curve at half-maximal effect; nearly all actives have a fitted effect of over 70% in size
# UniProt P09958, sequence (P09958 whole entry, looked up): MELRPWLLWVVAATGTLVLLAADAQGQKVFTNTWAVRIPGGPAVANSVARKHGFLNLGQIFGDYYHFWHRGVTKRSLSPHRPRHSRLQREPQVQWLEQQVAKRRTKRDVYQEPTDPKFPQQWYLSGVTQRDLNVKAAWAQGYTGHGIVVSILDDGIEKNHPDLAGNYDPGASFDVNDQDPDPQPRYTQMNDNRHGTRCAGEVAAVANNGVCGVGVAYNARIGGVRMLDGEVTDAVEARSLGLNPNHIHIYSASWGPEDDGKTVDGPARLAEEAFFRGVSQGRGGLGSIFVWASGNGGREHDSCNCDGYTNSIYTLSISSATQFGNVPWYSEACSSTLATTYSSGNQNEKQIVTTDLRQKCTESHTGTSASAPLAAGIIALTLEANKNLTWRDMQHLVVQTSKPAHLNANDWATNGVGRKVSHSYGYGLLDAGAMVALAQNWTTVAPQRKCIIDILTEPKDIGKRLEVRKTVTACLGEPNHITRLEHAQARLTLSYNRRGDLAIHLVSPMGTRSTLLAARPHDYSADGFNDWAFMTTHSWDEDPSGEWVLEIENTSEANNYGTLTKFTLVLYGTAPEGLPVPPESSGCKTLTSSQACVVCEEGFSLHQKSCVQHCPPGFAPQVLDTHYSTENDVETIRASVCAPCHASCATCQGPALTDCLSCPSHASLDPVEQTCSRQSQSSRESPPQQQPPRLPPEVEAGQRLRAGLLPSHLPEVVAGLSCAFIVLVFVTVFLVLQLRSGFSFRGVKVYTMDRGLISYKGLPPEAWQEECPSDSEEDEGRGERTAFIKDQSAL
# Procedure, shortened: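 Fluorogenic cleavage of BOC-RVRR-AMC (2 microM final, Km ~15 µM) was monitored (ex 340, em 450 nm) at 37C after 15 min RT preincubation of 5 nM furin with compounds in HEPES pH 7.0 buffer with CaCl2 and Triton X-100. Percent inhibition was fitted to a 4-parameter Hill curve.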
# [6] = qHTS to identify inhibitors of the type 1 interferon - major histocompatibility complex class I in skeletal muscle: primary screen against the NCATS Pharmaceutical Collection (AID 1347407); conditions: human skeletal muscle cells, IFN-b-induced MHC-I HiBiT luminescence, 24 h; activity change, negative = inhibition: at 45.9 µM (top of the series);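 also: luminescence of HiBiT knocked into endogenous HLA-B as interferon-induced MHC class I level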; also: potency is read from the fitted curve at half-maximal effect; as to activity change, negative = inhibition: % is scaled to controls: 0 for no effect and ±100 for the full control effect
# Procedure, shortened: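 Immortalized human myoblasts (C25cl48) with HiBiT knocked into endogenous HLA-B*08:01 were stimulated with 4 ng/ml IFN-beta and treated with compounds (8-point, 1:5, top 46 uM final) for 24 h at 37 C; HiBiT lytic luminescence read.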
# [7] = molecular target: 3',5'-cyclic-AMP phosphodiesterase 4B (Homo sapiens) (UniProt Q07343); assay: qHTS Assay for Inhibitors of PDE-IV (AID 607; active = well fitted activation curve with a large enough effect in the main read-out, with a control signal flat, not every such curve was filed as active; inconclusive = small, poorly fitted or top-dose-only effect, or effect the other way, or a change in a side signal; also: potency is read from the fitted curve at half-maximal effect)
# UniProt Q07343, sequence (Q07343 whole entry, looked up): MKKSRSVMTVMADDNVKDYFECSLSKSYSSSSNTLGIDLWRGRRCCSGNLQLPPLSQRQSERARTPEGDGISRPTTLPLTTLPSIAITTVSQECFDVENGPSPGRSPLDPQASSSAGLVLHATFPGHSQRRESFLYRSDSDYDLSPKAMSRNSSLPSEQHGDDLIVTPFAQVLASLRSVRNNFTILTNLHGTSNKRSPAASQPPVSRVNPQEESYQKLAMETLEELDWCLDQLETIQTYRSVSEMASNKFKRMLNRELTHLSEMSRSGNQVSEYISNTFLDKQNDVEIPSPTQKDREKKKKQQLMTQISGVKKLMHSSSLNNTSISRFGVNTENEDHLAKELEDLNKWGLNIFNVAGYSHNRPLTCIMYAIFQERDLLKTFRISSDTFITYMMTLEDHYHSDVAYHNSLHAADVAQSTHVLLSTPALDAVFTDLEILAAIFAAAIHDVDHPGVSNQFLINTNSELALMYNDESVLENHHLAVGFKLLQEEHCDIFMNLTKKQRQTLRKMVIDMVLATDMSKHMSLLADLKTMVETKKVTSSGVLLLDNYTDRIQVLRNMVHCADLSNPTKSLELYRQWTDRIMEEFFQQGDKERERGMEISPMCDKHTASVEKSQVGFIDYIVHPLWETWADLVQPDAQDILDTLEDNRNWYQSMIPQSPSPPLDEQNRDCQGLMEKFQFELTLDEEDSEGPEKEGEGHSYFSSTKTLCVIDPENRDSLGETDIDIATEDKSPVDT
# Procedure, shortened: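 Live HEK293 cells with a modified cyclic nucleotide-gated (CNG) channel report intracellular cAMP via membrane-potential dye fluorescence (ex 535/em 590 nm). Endogenous PDE-IV was targeted. Compounds were tested at up to 22.9 uM final; RO 20-1724 100 uM served as control.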
# [8] = qHTS of pediatric cancer cell lines to identify multiple opportunities for drug repurposing: Confirmatory screen for A673 cells (AID 1347110);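 also: cells exposed to compound for 48 h before the viability read; nearly all actives have a fitted effect of over 65% in size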; also: potency is read from the fitted curve at half-maximal effect
# Procedure, shortened: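 A673 cells seeded at 500-1,000 cells/well, rested 5 h, then dosed; primary MIPE 11-point (0.78 nM to 46 µM), NPC (0.59 nM to 46 µM); confirmatory 11-point. CellTiter-Glo luminescence after 48 h.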
# [9] = qHTS of pediatric cancer cell lines to identify multiple opportunities for drug repurposing: Confirmatory screen for SK-N-MC cells (AID 1347111); also: potency is read from the fitted curve at half-maximal effect
# Procedure, shortened: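 Metabolically active cells were quantified by ATP-dependent luminescence (CellTiter-Glo, 15 min at room temperature) following 48 h treatment. Cells had been plated at 500-1,000 per well and settled for 5 h beforehand.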
# [10] = qHTS of pediatric cancer cell lines to identify multiple opportunities for drug repurposing: Confirmatory screen for BT-12 cells (AID 1347112); also: nearly all actives have a fitted effect of over 55% in size; also: potency is read from the fitted curve at half-maximal effect
# Procedure, shortened: (§1)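 Cells (500-1,000/well) in growth media were settled 5 h at 37 degrees C, then given compounds for 48 h. Viability was read as CellTiter-Glo luminescence. Primary runs used MIPE at 11 points (0.78 nM-46 µM) and NPC at 8 points (0.59 nM-46 µM); follow-ups used 11 points.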
# [11] = qHTS of pediatric cancer cell lines to identify multiple opportunities for drug repurposing: Confirmatory screen for DAOY cells (AID 1347114); also: nearly all actives have a fitted effect of over 65% in size; also: potency is read from the fitted curve at half-maximal effect
# Procedure, shortened: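 Viability measured as metabolically active cells via CellTiter-Glo luminescence following 48 hours of compound exposure, 11-point dilutions in confirmatory testing. 500-1,000 cells/well plated 5 hours before dosing; controls were DMSO and 2.3 µM bortezomib.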
# [12] = qHTS of pediatric cancer cell lines to identify multiple opportunities for drug repurposing: Confirmatory screen for TC32 cells (AID 1347118);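 also: cells exposed to compound for 48 h before the read; nearly all actives have a fitted effect of over 65% in size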; also: potency is read from the fitted curve at half-maximal effect
# Procedure, shortened: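 Measured quantity: luminescence from CellTiter-Glo, reflecting metabolically active TC32 cells following 48 h of compound. Curves came straight from multi-point titrations, with 8 or 11 points in primary and 11 in confirmatory screening.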
# [13] = qHTS of pediatric cancer cell lines to identify multiple opportunities for drug repurposing: Confirmatory screen for Saos-2 cells (AID 1347127); also: potency is read from the fitted curve at half-maximal effect; nearly all actives have a fitted effect of over 60% in size
# Procedure, shortened: as §1
# CP201 = assay: qHTS profiling for inhibitors of Plasmodium falciparum proliferation (AID 504749); also: potency is read from the fitted curve at half-maximal effect; nearly all actives have a fitted effect of over 60% in size; conditions: P. falciparum in erythrocytes, SYBR Green DNA, 72 h; series mostly up to 28.7 µM
# Procedure, shortened: (§2)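 P. falciparum-infected erythrocytes (0.3% parasitemia, 2.5% hematocrit final) were exposed to compounds for 72 h at 37 C in 5% CO2, then lysed with SYBR Green buffer overnight at room temperature; parasite DNA fluorescence was normalized to artemisinin and DMSO controls.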
# CP325 = assay: as above; conditions: P. falciparum in erythrocytes, SYBR Green DNA, 72 h; series mostly up to 28.7 µM
# Procedure, shortened: as §2
# TAB109 = assay: as above; conditions: P. falciparum in erythrocytes, SYBR Green DNA, 72 h; series mostly up to 28.7 µM
# Procedure, shortened: as §2
# [14] = molecular target: Glucocorticoid receptor (Homo sapiens) (UniProt P04150); assay: qHTS assay for small molecule antagonists of glucocorticoid receptor signaling (AID 588533; active = well fitted inhibition curve with a large enough effect in the signal ratio, with a control signal flat, not every such curve was filed as active; inconclusive = small, poorly fitted or top-dose-only effect, or effect the other way, or a change in a side signal; the % refers to the signal ratio;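 also: cells stimulated with 2 nM dexamethasone as agonist; % is scaled to controls: 0 for no effect and ±100 for the full control effect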); conditions: HeLa MMTV-bla, GRE beta-lactamase ratio, antagonist mode, 18 h
# [15] = molecular target: Peroxisome proliferator-activated receptor gamma (Homo sapiens) (UniProt P37231); assay: qHTS assay for small molecule antagonists of peroxisome proliferator-activated receptor gamma signaling (AID 588537; active = well fitted inhibition curve with a large enough effect in the signal ratio, with a control signal flat, not every such curve was filed as active; inconclusive = small, poorly fitted or top-dose-only effect, or effect the other way, or a change in a side signal; the % refers to the signal ratio; also: potency is read from the fitted curve at half-maximal effect;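 also: reporter cells co-stimulated with 50 nM rosiglitazone agonist during compound treatment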; as to activity, negative = inhibition: % of control where 0% means no effect); conditions: HEK293 PPARg-UAS-bla, beta-lactamase ratio, antagonist mode; activity, negative = inhibition: at 76.8 µM (top of the series)
# Procedure, shortened: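 PPAR-gamma-UAS-bla HEK293 cells (3000/well, 1% charcoal/dextran-stripped FBS) were preincubated 6-6.5 h at 37 C, given titrated compounds, then stimulated with 50 nM rosiglitazone for 16 h. Beta-lactamase activity was read with CCF4 dye; IC50 came from Hill fits.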
# [16] = qHTS assay to identify small molecules that stimulate interleukin-8 (IL-8) secretion (AID 651758; active = well fitted activation curve with a large enough effect in the signal ratio; inconclusive = small, poorly fitted or top-dose-only effect, or effect the other way, or a change in a side signal; the % refers to the signal ratio; also: potency is read from the fitted curve at half-maximal effect; as to activation: 0% is about no effect); conditions: HTRF ratio (665/615); activation: at 92.2 µM (top of the series)
# Procedure, shortened: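 THP-1, 2000 cells/well; cpd 16 h, 37 C; add cryptate + XL665 anti-IL-8 Abs; RT 1-3 h; TR-FRET read.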
# [17] = activity change, negative = inhibition: at 76.8 µM (top of the series)
# Tags tell the direction and shape of the fitted curve or compound fluorescence and quenching.
smiles,measurement,setting,value
CC(=O)[C@H]1CC[C@H]2[C@@H]3CC=C4C[C@@H](OS(=O)(=O)O)CC[C@]4(C)[C@H]3CC[C@]12C,Potency,[1],"inconclusive [inhibitor, partial curve]"
O=C(Nc1ccc(S(=O)(=O)Nc2nccs2)cc1)C(c1ccccc1)c1ccccc1,Potency,[2],"inconclusive [inhibitor, partial curve]"
same,Potency,[3],"inconclusive [inhibitor, full curve]"
same,Potency,[4],active: 50.1 µM
COc1cc(C(=O)NS(=O)(=O)c2ccccc2C)ccc1Cc1cn(C)c2ccc(NC(=O)OC3CCCC3)cc12,Potency,[5],active: 16.1 µM
same,Potency,Furin (Homo sapiens),"inconclusive [inhibitor, partial curve]"
same,Potency,[3],active: 17.1 µM
same,Potency,[1],active: 25 µM
O=C(O)CNC(=O)CNC(=O)CNC(=O)CSC(=O)c1ccccc1,Potency,[6],inactive
C[C@@H]1CN(CCCn2c3ccccc3c3ccccc32)C[C@H](C)N1,Potency,[7],"inconclusive [activator, single point]"
same,Potency,[8],"inconclusive [cytotoxic, single point]"
same,Potency,[9],"inconclusive [cytotoxic, full curve, poor fit]"
same,Potency,[10],"inconclusive [cytotoxic, partial curve]"
same,Potency,[11],active: 20.8 µM
same,Potency,[12],"inconclusive [cytotoxic, partial curve, poor fit]"
same,Potency,[13],"inconclusive [cytotoxic, single point]"
same,Potency,CP201,"inconclusive [inhibitor, partial curve, poor fit]"
same,Potency,CP325,"inconclusive [inhibitor, partial curve, poor fit]"
COc1cc(C(=O)NCc2ccc(OCCN(C)C)cc2)cc(OC)c1OC,Potency,[7],inactive
same,Potency,[5],inactive
CCC(=O)O[C@]1(C(=O)COC)[C@@H](C)C[C@H]2[C@@H]3CCC4=CC(=O)C=C[C@]4(C)C3(F)[C@@H](O)C[C@@]21C (stereo partly specified),Potency,[8],inactive
same,Potency,[9],inactive
same,Potency,[10],inactive
same,Potency,[11],inactive
same,Potency,[12],inactive
same,Potency,[13],"inconclusive [rising, full curve, poor fit]"
CCN1CC(CCN2CCOCC2)C(c2ccccc2)(c2ccccc2)C1=O (stereo unspecified),Potency,TAB109,"inconclusive [inhibitor, single point]"
Clc1ccc2c(c1)CCc1cccnc1C2=C1CCNCC1,Potency,CP201,"inconclusive [inhibitor, single point]"
same,Potency,CP325,"inconclusive [inhibitor, partial curve]"
same,Potency,TAB109,"inconclusive [inhibitor, single point]"
CN1CCC(=C2c3ccccc3Sc3ccccc32)CC1,Potency,CP201,"inconclusive [inhibitor, partial curve]"
same,Potency,CP325,"inconclusive [inhibitor, partial curve]"
C[C@H]1C[C@H]2[C@@H]3CCC4=CC(=O)C=C[C@]4(C)[C@H]3C(=O)C[C@]2(C)[C@@]1(O)C(=O)CO,Potency,[8],"inconclusive [cytotoxic, single point]"
same,Potency,[9],"inconclusive [cytotoxic, full curve, poor fit]"
same,Potency,[10],"inconclusive [cytotoxic, full curve]"
same,Potency,[11],inactive
same,Potency,[12],"inconclusive [cytotoxic, full curve, poor fit]"
same,Potency,[13],active: 3.69 µM
NC(N)=NS(=O)(=O)c1ccc(N)cc1,Potency,[7],inactive
same,Potency,[5],inactive
COC(=O)[C@H]1[C@H]2C[C@@H]3c4[nH]c5cc(OC)ccc5c4CCN3C[C@H]2C[C@@H](OC(=O)c2cc(OC)c(OC)c(OC)c2)[C@@H]1OC,"activity change, negative = inhibition",[14]; [17],inconclusive: 2.88%
same,"activity change, negative = inhibition",[14]; at 76.8 µM (top of the series),inactive: -20.3%
same,Potency,[15],"inconclusive [side channel, rising, partial curve]"
same,"activity, negative = inhibition",[15],inconclusive: -26.9%
same,Potency,[16],"inconclusive [activator, single point]"
same,Potency,Furin (Homo sapiens),active: 27.1 µM
COC1=CC(=O)C[C@@H](C)[C@]12Oc1c(Cl)c(OC)cc(OC)c1C2=O,"activity change, negative = inhibition",[14]; [17],inconclusive: -6.74%
same,Potency,[15],"inconclusive [side channel, rising, single point]"
same,Potency,[16],inactive
CC(C)(c1ccc(O)cc1)c1ccc(O)cc1,activation,[16],inconclusive: -12% and inconclusive: -13.2%
same,Potency,[6],"inconclusive [inhibitor, single point]"
CCCCOc1ccc(OCCCN2CCOCC2)cc1,Potency,[6],inactive
O=C(Nc1ccc(-c2ccc(Cl)c(Cl)c2)cc1)C1=C(O)c2ccccc2S(=O)(=O)N1,Potency,[2],active: 49.4 µM
same,Potency,[4],active: 44.7 µM
CCCCCc1ccc(/C=C/C(=O)Nc2cc(Cl)ccc2C(=O)O)cc1,Potency,Furin (Homo sapiens),active: 39.3 µM
CCCN1C[C@H](CSC)C[C@@H]2c3cccc4[nH]cc(c34)C[C@H]21,Potency,TAB109,active: 12.6 µM

# From PubChem BioAssay (NCATS)
